Results: PubChem BioAssay AID2546 (National Center for Advancing Translational Sciences (NCATS), 2010)
In all, about 310,000 compounds went through this assay and about 11,000 (3.5%) were called active. The inconclusive results got no clear call from the source; some entries with a clear call stand among them for comparison. Calls follow the shape of the dose curve; as a rule, active = well fitted inhibition curve with a large enough effect; inconclusive = small, poorly fitted or top-dose-only effect, or effect the other way; inactive = flat fitted curve, though single readings scatter. Potencies of inconclusive entries are left out as doubtful fits.

Test: VP16 counterscreen qHTS for inhibitors of ROR gamma transcriptional activity;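 also: Gal4-VP16 expression switched on by copper sulfate through the metallothionein promoter; nearly all actives have a fitted effect of over 50% in size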
Settings: Drosophila S2 Gal4-VP16 UAS-luciferase, luminescence, 20 h; activity, negative = inhibition: at 53.6 µM (top of the series)
% is scaled to controls: 0 for no effect and ±100 for the full control effect; potency is read from the fitted curve at half-maximal effect; tags tell the direction and shape of the fitted curve.

Row | Structure (SMILES) | Potency | activity, negative = inhibition
1 | Cc1ccc(NC(=O)CCC(=O)N/N=C/c2cc([N+](=O)[O-])ccc2O)cc1 | active: 14.1 µM | 
2 | Cc1cc(C(=O)Nc2sc3c(c2C#N)CCC(C)C3)no1 (stereo not given) | inconclusive [inhibitor, single point] | 
3 | Cn1nnc(-c2ccc(OCc3ccccc3F)cc2)n1 | inconclusive [inhibitor, single point] | 
4 | Cc1ccc(/C=C2\SC(=S)N(CCCC(=O)Nc3cc(C)on3)C2=O)cc1 | inconclusive [inhibitor, full curve] | 
5 | Cc1nnc(NC(=O)c2ccc(S(=O)(=O)N(C)Cc3ccccc3)cc2)o1 | active: 0.562 µM | 
6 | Cn1c(O)c(N=NC(=S)Nc2ccccc2F)c2cc(S(=O)(=O)N3CCOCC3)ccc21 | active: 2 µM | 
7 | COc1ccc(NC(=O)CCC(=O)c2cccs2)cc1Cl |  | inactive: 17.6%
8 | CCCCN(C)CCn1c(=S)[nH]c2ccc(N3CCOCC3)cc2c1=O | inconclusive [inhibitor, single point] | 
9 | COc1ccccc1Nc1nc(N)nc(CN2CCc3ccccc3C2)n1 | inconclusive [inhibitor, single point] | 
10 | CC(C)(C)OC(=O)CNC(=O)c1[nH]cnc1C(=O)N[C@@H](Cc1ccccc1)C(=O)OC(C)(C)C | active: 12.6 µM | 
11 | COc1ccc(C(=O)Nc2ccc3c(c2)nc2n3CCSC2)cc1 | inconclusive [inhibitor, partial curve] | 
12 | O=C(c1ccc([N+](=O)[O-])cc1)N1CCSC1c1cccc(Cl)c1 (stereo not given) |  | inactive: -0.251%
13 | O=c1cc(CSc2nc3ccccc3[nH]2)c2ccccc2[nH]1 |  | inactive: 1.79%
14 | O=c1[nH]c(C2CCN(S(=O)(=O)c3ccc(F)cc3)CC2)nc2c1nnn2Cc1ccc2c(c1)OCCO2 |  | inactive: -1.8%
15 | COc1ccccc1C(=O)NNC(=S)NC(=O)c1ccco1 | inconclusive [inhibitor, single point] | 
16 | O=C(Nc1cccnc1)c1ccc(Cl)c(S(=O)(=O)N2CCCCCC2)c1 |  | inactive: -3.89%
17 | Cc1ccc(C)c(N2CCN(C(=O)C3CCN(S(=O)(=O)c4c(C)noc4C)CC3)CC2)c1 | inconclusive [inhibitor, single point] | 
18 | CCOC(=O)N1CCN(Cc2ccc(O)c3ncccc23)CC1 | active: 5.01 µM | 
19 | COc1ccccc1N1CCN(C(=O)C2CCC(Cn3c(=S)[nH]c4ccccc4c3=O)CC2)CC1 (stereo not given) | active: 5.01 µM | 
20 | Cc1ccccc1C(=O)NC(=S)NCCC1=CCCCC1 | active: 15.8 µM | 
21 | Nc1n[nH]c2c1C1(CCCCC1)Cc1ccccc1-2 | inconclusive [inhibitor, single point] | 
22 | C(=N\Nc1nc2ccccc2[nH]1)/c1c[nH]c2ccccc12 | active: 10 µM | 
23 | CC1CCCN(c2nc3c(c(=O)[nH]c(=O)n3C)n2Cc2ccccc2Cl)C1 (stereo not given) |  | inactive: -15.8%
24 | COc1ccc(-n2c(C)cc(C3=NNC(=NC4CC4)SC3)c2C)cc1 | inconclusive [activator, single point] | 
25 | CCOC(=O)N1CCN(C(=O)c2ccc(Cn3c(=S)[nH]c4ccc(Br)cc4c3=O)cc2)CC1 | active: 14.1 µM | 
26 | CC(/C=C/c1ccccc1F)=N\NC(=O)c1ccccc1 | active: 7.08 µM | 
27 | COc1ccc(C(=O)N(C)Cc2ccccn2)cc1OC1CCN(C(C)C)CC1 | inconclusive [activator, single point] | 

Row | Structure (SMILES) | Potency | activity, negative = inhibition
28 | Cc1cc(NC(=O)COc2ccc(Cl)cc2Cl)n(CCC#N)n1 |  | inactive: 11.1%
29 | CCc1cc(-c2[nH]ncc2-c2ccc([N+](=O)[O-])cc2)c(O)cc1OC | active: 20 µM | 
30 | CN(CCc1ccccn1)C(=O)CC1C(=O)NCCN1Cc1cccc(F)c1 (stereo not given) |  | inactive: 7.24%
31 | Cc1c(C(=O)NCCc2ccccc2)oc2ccccc12 | inconclusive [inhibitor, single point] | 
32 | O=C(Oc1c(Br)cc([N+](=O)[O-])cc1Br)c1cccnc1 | inconclusive [activator, single point] | 
33 | c1cncc(-c2nnc(-c3ccco3)o2)c1 | inconclusive [activator, single point] | 
34 | CCC1CC=CC2C1C(=O)N(Cc1ccccc1)C2c1ccc(C(F)(F)F)cc1 (stereo not given) | inconclusive [inhibitor, single point] | 
35 | NS(=O)(=O)c1ccc(CCNCc2cc(Br)ccc2OCc2ccccc2F)cc1 | active: 12.6 µM | 
36 | Cc1cc(-c2ccc([N+](=O)[O-])cc2)nc2ccccc12 |  | inactive: -0.373%
37 | COC(=O)C1=C(C)NC(c2c(O)ccc3ccccc23)C(C(=O)OC)=C1C (stereo not given) |  | inactive: 0.767%
38 | O=C(Nc1ccccc1)Nc1ccc2nnsc2c1 |  | inactive: 22%
39 | COc1ccc(CNc2ncnc3cc(Cl)ccc23)cc1OC | inconclusive [inhibitor, single point] | 
40 | Cc1ccc(NC(=S)NC(NC(=O)c2ccccc2C)C(Cl)(Cl)Cl)c(C)c1 (stereo not given) | inconclusive [inhibitor, single point] | 
41 | CCc1cccc(C)c1NC(=O)CN1C(=O)NC(Cc2ccccc2)C1=O (stereo not given) |  | inactive: -1.81%
42 | O=C(c1cccc(C(F)(F)F)c1)C1CCCN(C(=O)CN2CCOC2=O)C1 (stereo not given) | inconclusive [activator, single point] | 
43 | CCCCOc1ncnc2c1[nH]c1ccc(C)cc12 | active: 10 µM | 
44 | CCCCCCNc1c(C(=O)OCC)c(=O)[nH]c2ccccc12 | inconclusive [inhibitor, single point] | 
45 | O=C(N/N=C/c1ccc(Br)o1)c1cccnc1 | inconclusive [activator, single point] | 
46 | O=C(Nc1ccccc1Cl)c1ccc([N+](=O)[O-])o1 | active: 15.8 µM | 
47 | Cc1ccc(C(=O)NC(=S)Nc2ccc(NC(=O)c3cccs3)cc2)cc1[N+](=O)[O-] | active: 6.31 µM | 
48 | O=C1c2cccc(OCC(=O)N3CCCc4ccccc43)c2CCN1Cc1cccnc1 | inconclusive [inhibitor, single point] | 
49 | CCN(CC)C(=O)c1ccc(NS(=O)(=O)c2ccc3[nH]c(=O)[nH]c3c2)cc1 |  | inactive: -23.6%
50 | Cc1n[nH]c(=O)n1-c1ccc(Oc2ccccc2)cc1 | active: 0.891 µM | 
51 | N#Cc1cccc(NC(=S)Nc2ccccc2)c1 |  | inactive: -8.64%
52 | Nc1cc(-c2ccc(Br)cc2)[nH]n1 | inconclusive [activator, single point] | 
53 | O=C(O)C1C2C=CC(CC2)C1C(=O)O (stereo not given) |  | inactive: 10.7%
54 | O=c1cnn([C@@H]2O[C@H](CO)[C@@H](O)[C@H]2O)c(=O)[nH]1 |  | inactive: 8.95%

Row | Structure (SMILES) | Potency | activity, negative = inhibition
55 | CC1CCCC(C)N1c1nnc(NC(=O)c2cc(-c3ccc(Br)cc3)on2)s1 (stereo not given) | inconclusive [inhibitor, single point] | 
56 | S=C(Nc1ccc(Nc2ccccc2)cc1)Nc1ccccn1 | active: 2.51 µM | 
57 | O=c1[nH]nc(-c2ccc(F)cc2)cc1Cc1cccs1 |  | inactive: 1.92%
58 | COC(=O)C1=C(O)C(C(=O)OC)C(c2ccc(C)cc2)C(C#N)(C#N)C1c1ccc(C)cc1 (stereo not given) | inconclusive [inhibitor, single point] | 
59 | COC(=O)c1ccc(OCC(O)CN2CCOCC2)cc1 (stereo not given) |  | inactive: 3.12%
60 | O=C(NCCc1cccs1)C1CC(c2cccc(F)c2)=NO1 (stereo not given) | inconclusive [inhibitor, full curve, poor fit] | 
61 | COc1ccccc1-c1coc2cc(OC(=O)/C=C/c3ccccc3)ccc2c1=O |  | inactive: -11.5%
62 | O=C(CC12CC3CC(CC(C3)C1)C2)N/N=C\c1ccc[nH]1 | active: 15.8 µM | 
63 | O=C(CSc1nc2ccccc2s1)Nc1ncccn1 |  | inactive: -0.931%
64 | COc1cccc(NC(=S)N/N=C2\CC(C)(C)Oc3ccc(O)cc32)c1 | active: 4.47 µM | 
65 | O=C(CCCCCNc1nc(=S)[nH]c2ccccc12)NCCc1c[nH]c2ccccc12 | inconclusive [inhibitor, single point] | 
66 | CSc1cccc(NC(=O)CCS(=O)(=O)c2cccc3nonc23)c1 |  | inactive: -1.16%
67 | COc1ccc2c(c1)CCc1c(C(=O)Nc3c(C)nn(Cc4ccccc4)c3C)noc1-2 | inconclusive [inhibitor, single point] | 
68 | CCOc1ncccc1C(=O)N1CCN(c2cc(Cl)ccc2C)CC1 |  | inactive: 5.78%
69 | CN(C)CC/C=C1\c2cc(F)ccc2CSc2ccccc21 | inconclusive [inhibitor, single point] | 
70 | CCCCCCCN(C(=O)CCl)c1cccc(C)c1 | inconclusive [inhibitor, single point] | 
71 | Cc1ccc(NC(=O)N2CCC(C(=O)c3ccc(F)cc3)CC2)cc1 |  | inactive: -3.36%
72 | Cc1cc(Br)c2c(c1)/C(=C/C(=O)c1cccs1)C(=O)N2 | active: 17.8 µM | 
73 | c1ccc(C2Oc3ccccc3C3CC(c4cccs4)=NN32)cc1 (stereo not given) | inconclusive [inhibitor, single point] | 
74 | Cc1ccccc1NC(=O)/C=C/c1cccs1 | inconclusive [activator, full curve, poor fit] | 
75 | CNC1C(O)C(O)C(CO)O[C@H]1OC1C(O[C@@H]2C(O)C(O)[C@@H](N=C(N)N)C(O)C2N=C(N)N)OC(C)[C@]1(O)C=O (stereo not given in full) |  | inactive: -3.45%
76 | Cc1ccc(/C=N/NC(=O)c2nnn(-c3nonc3N)c2CSc2ccccc2)s1 | active: 5.01 µM | 
77 | Cc1ccc(C(c2nnnn2C2CCCCC2)N2CCc3ccccc32)cc1 (stereo not given) | inconclusive [inhibitor, partial curve] | 
78 | Cc1nnc(NC(=O)CN2CCN(Cc3c(Cl)cccc3Cl)CC2)s1 | inconclusive [inhibitor, single point] | 
79 | COCCNC(=S)NNc1cccc(C(=O)O)c1 |  | inactive: -1.71%
80 | CN(Cc1ccccc1)C(=O)c1nc2ccccn2c1CNCCn1cccn1 | inconclusive [inhibitor, single point] | 
